Reference: publication PMC4336329 (PLoS ONE, 2015)
In all, about 310,000 compounds went through this assay and about 14,000 (4.5%) showed an effect of 50% or more. The effect is printed as a negative number. Some of the results follow.

biological target: human ether-à-go-go-related gene (hERG) potassium channel (human, UniProt Q12809); experiment: primary screen, population patch clamp on CHO cells stably expressing hERG
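Note: peak tail current of the secondary pulse compared with the same well before compound.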

human ether-à-go-go-related gene (hERG) potassium channel, sequence (Q12809 whole entry, looked up): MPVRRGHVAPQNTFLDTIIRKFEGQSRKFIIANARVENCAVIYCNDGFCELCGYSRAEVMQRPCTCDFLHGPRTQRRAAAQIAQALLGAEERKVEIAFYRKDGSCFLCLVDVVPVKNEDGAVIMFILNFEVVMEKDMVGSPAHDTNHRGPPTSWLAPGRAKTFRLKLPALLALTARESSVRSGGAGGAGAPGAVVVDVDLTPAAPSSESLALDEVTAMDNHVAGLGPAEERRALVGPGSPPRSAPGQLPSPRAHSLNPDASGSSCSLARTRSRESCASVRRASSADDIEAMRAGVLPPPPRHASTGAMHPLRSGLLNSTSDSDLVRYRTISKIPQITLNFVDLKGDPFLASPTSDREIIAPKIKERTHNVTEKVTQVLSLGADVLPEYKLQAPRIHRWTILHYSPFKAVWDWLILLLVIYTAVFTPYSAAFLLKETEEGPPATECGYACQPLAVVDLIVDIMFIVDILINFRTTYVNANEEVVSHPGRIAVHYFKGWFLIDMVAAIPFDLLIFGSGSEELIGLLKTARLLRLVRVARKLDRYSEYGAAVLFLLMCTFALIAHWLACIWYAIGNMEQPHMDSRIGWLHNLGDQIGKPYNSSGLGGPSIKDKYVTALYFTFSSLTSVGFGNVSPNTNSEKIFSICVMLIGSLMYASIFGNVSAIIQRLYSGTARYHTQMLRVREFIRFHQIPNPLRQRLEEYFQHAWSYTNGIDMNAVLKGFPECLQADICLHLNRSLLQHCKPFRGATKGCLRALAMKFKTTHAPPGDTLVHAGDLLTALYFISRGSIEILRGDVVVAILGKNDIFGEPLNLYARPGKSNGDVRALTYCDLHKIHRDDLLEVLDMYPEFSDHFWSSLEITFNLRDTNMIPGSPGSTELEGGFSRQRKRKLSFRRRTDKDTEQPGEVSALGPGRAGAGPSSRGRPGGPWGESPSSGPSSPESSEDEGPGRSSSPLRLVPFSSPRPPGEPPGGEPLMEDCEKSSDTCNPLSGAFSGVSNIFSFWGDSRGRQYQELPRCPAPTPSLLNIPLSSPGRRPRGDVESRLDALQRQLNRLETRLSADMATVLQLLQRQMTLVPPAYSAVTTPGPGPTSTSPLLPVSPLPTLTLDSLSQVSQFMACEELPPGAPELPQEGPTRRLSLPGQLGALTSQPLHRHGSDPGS

SMILES	hERG current change (%, negative = inhibition) at 10uM [%]
COc1cccc(-n2c(Cc3cc(=O)[nH]c(=O)[nH]3)nnc2SCc2cccnc2)c1	4
Cc1ccc(C(=O)CSc2nnc(C3CC3)n2C2CC2)s1	-12.4
O=C(Nc1nnc(S(=O)(=O)N2CCCCCC2)s1)c1ccccc1	13.9
Cc1cc(C)cc(N2CCCC2=O)c1	16.3
CN1CCN(S(=O)(=O)c2ccc(-c3ccccc3)cc2)CC1	3.51
O=C(NNC(=O)c1cc(S(=O)(=O)N2CCCCC2)ccc1Cl)c1ccccc1O	-11
COc1ccc(C(=O)NCc2cn3c(C)csc3n2)cc1OC	-3.3
Cc1ccc(S(=O)(=O)N2CCC(C(=O)N[C@@H](Cc3ccccc3)C(=O)O)CC2)cc1	-0.0166
OCC[C@H]1C[C@@H](O)[C@H](O)[C@@]2(OCCc3ccccc32)O1	9.73
Cc1ccc(NC(=O)CSc2nc3ccccc3c(=O)n2CCCC(=O)N2CCCC2)cc1	-44.5
Cc1ccc(C(O)c2ccncc2)cc1 (stereo not shown)	9.16
CC(C)NS(=O)(=O)c1ccc(OCC(=O)Nc2ccc3c(c2)OCO3)cc1	0.616
O=C(Nc1ccc(N2CCOCC2)c(Cl)c1)c1cccnc1	0.0219
O=C(Cn1ccc([N+](=O)[O-])n1)NCc1cccs1	-7.44
O=C(Cn1cnc2ccccc2c1=O)NCC(=O)N1CCC2(CC1)OCCO2	-8.99
COc1ccccc1-n1c(N)c(C(=O)NCC2CCCO2)c2nc3ccccc3nc21 (stereo not shown)	0.889
COc1ccccc1-n1c(SCc2cc(=O)oc3cc(O)ccc23)nc2ccccc2c1=O	-11.1
CCOC(=O)c1c(/N=C/c2ccccc2O)sc2c1CCC2	7.89
O=C(Cc1ccc([N+](=O)[O-])cc1)NCc1ccccn1	-4.02
O=C1C2CCCCC2C(=O)N1c1ccc(NC2CCCCC2)c([N+](=O)[O-])c1 (stereo not shown)	3.18
O=S(=O)(NC1CCSc2ccccc21)c1ccccc1 (stereo not shown)	-14.1
Cl.O=C(NCc1nc2ccccc2[nH]1)c1c(F)c(F)c(F)c(F)c1F	1.09

SMILES	hERG current change (%, negative = inhibition) at 10uM [%]
CN(C)S(=O)(=O)N1CCN(S(=O)(=O)c2ccc(F)cc2)CC1	5.97
CC1=Nc2cc(C(=O)NCC3CCCO3)ccc2Sc2ccc(C)cc21 (stereo not shown)	-2.64
O=C(Cc1ccccc1)NCCc1cccc(Cl)c1	-15.2
O=C(Nc1ccc(Oc2ccccc2)nc1)C1CCCCN1Cc1cccc(OCCO)c1 (stereo not shown)	7.28
O=C(NCc1ccccc1Cl)C1CCCN1C(=O)NC1CCCCC1 (stereo not shown)	13.2
COC(=O)CCC(=O)OC1(C)C(=O)C2=CN(C(CO)CO)C(c3ccc(OC)cc3)=CC2=C(Br)C1=O (stereo not shown)	0.962
Cc1nn(CC(=O)NCCc2ccc(Cl)cc2)c(C)c1[N+](=O)[O-]	-24.1
CC(=O)Nc1ccc(S(=O)(=O)N2CCCCC2C(=O)O)cc1 (stereo not shown)	17.9
COc1cc2[nH]c(=O)n(CCC(=O)N3CCN(Cc4ccc5c(c4)OCO5)CC3)c(=O)c2cc1OC	1.83
COc1cccc(/C=N/n2c(C)nc3ccccc3c2=O)c1O	-3.03
C=CCNC(=O)COc1cc(C)cc(C)c1C	35.1
CC1CCCN(C(=O)COC(=O)c2ccc3[nH]c4c(c3c2)CCCC4)C1 (stereo not shown)	-1.02
CCC(C)NC(=O)C(Cc1ccccc1)NS(=O)(=O)c1cccc2nsnc12 (stereo not shown)	-4.67
CN(/C=C/C(=C/C=[N+](C)c1ccccc1)OCCCS(=O)(=O)[O-])c1ccccc1	10.4
Cn1nc(-c2ccc(N3CCN(CCO)CC3)c([N+](=O)[O-])c2)c2ccccc2c1=O	-1.73
COc1ccc(C(CC(=O)O)n2cnnn2)cc1.Cl (stereo not shown)	-6.02
O=C(CCN1C(=O)S/C(=C\c2ccccc2)C1=O)Nc1ccc(O)cc1C(=O)O	19.6
CCN(C(=O)CN1CCN(c2ccccc2OC)CC1)c1c(N)n(Cc2ccccc2)c(=O)[nH]c1=O	8.19
COc1ccc(NC(=O)CSc2nnnn2C2CCCC2)cc1	8.06
O=C(NCc1ccc2c(c1)OCO2)C1CC(=O)N(C2CCCC2)C1 (stereo not shown)	4.86
CC(C)(C)N(Cc1ccccc1)C(=O)COC(=O)c1ccc(Br)o1	13.6
O=C(NCC1CCCO1)c1nn2c(c1Cl)NC(c1ccc(F)cc1)CC2C(F)(F)F (stereo not shown)	-29.5

SMILES	hERG current change (%, negative = inhibition) at 10uM [%]
O=C(c1cc(S(=O)(=O)N2CCN(c3ccccc3)CC2)ccc1Cl)N1CCCC(C(F)(F)F)C1 (stereo not shown)	-16.2
Cc1ccc(N2CCN(S(=O)(=O)c3ccc4oc(=O)ccc4c3)CC2)cc1Cl	3.42
C/C(CC(=O)Nc1c(C)cc(C)cc1C)=N\NC(=O)c1cnccn1	8.75
CC(=O)N1CCc2cc(S(=O)(=O)Nc3ccc(C)cc3C)ccc21	4.5
COc1ccc2cc(CN(Cc3cccnc3)Cc3nnnn3Cc3ccccc3)c(=O)[nH]c2c1	-74.4
O=C(Nc1ccc(S(=O)(=O)NCc2ccco2)cc1)c1ccncc1	3.33
C/C(=N\NC(=O)C(N)=O)c1cccc([N+](=O)[O-])c1	11.8
CCN(C(=O)c1cn(C)c(=O)c2cc(OC)c(OC)cc12)c1ccccc1C	-16
CCOC(=O)c1c(C)[nH]c(C(=O)CN2C(=O)C(=O)N(CC(C)C)C2=O)c1C	12.7
CC(=O)Nc1nnc(S(=O)(=O)N2CCN(c3ccc(Cl)cc3[N+](=O)[O-])CC2)s1	7.86
Cc1ccc(N2CCN(C(=O)c3cc(C(=O)c4ccccc4C)c[nH]3)CC2)c(C)c1	14.8
COCCCNC(=O)C1c2ccccc2Oc2ccccc21	13.6
Nc1[nH][nH]c(=O)c1N=Nc1cccc(Cl)c1	16.9
CC(C)Cn1c(=O)n(C)c(=O)c2[nH]cnc21	10.7
COc1cc(C(=O)OCCC(C)C)cc(OC)c1O	-1.55
CC1CC(NC(=O)CC#N)CC(C)(C)C1 (stereo not shown)	21.3
COc1ccccc1NC(=O)Cn1c(=O)c(N(C)C)c(N)n(C)c1=O	21.9
Cc1cc(C)cc(OCC(=O)OC/C(O)=C(\C#N)c2nc3ccccc3[nH]2)c1	15.9
CC(C)c1ccc(/C=C/C(=O)CCC(=O)O)cc1	17.9
CC1(C)CC(=O)C2=C(C1)OC(=O)CC2c1cccs1 (stereo not shown)	-4.61
CN(CCC#N)C(=O)CSc1nnc(-c2c[nH]c3ccccc23)o1	4.76
COCCNC(=O)c1cn(Cc2c(F)cccc2Cl)nn1	18.7

SMILES	hERG current change (%, negative = inhibition) at 10uM [%]
CCc1cc(C(=O)c2ccc(OC)cc2)c(N)s1	-12.7
C#CCOc1ccccc1/C=N/NC(=O)c1ccccc1OCc1ccccc1	12.1
Cc1nc(C)c(-c2csc(NCc3ccco3)n2)s1	-10.9
COC(=O)c1ccc(N2CCOCC2)c(NC(=O)c2cccs2)c1	-5.27
CC(=O)N1CCOc2ccc(S(=O)(=O)Nc3ncccc3C)cc21	14
O=c1[nH]c2cccnc2n1-c1ccc([N+](=O)[O-])cc1	0.0443
S=C(NCCCNC(=S)Nc1ccccc1)Nc1ccccc1	8.91
CC(Sc1sc(=S)sc1SC(C)C(=O)O)C(=O)O (stereo not shown)	-0.115
CC[C@H](C)[C@@H](CNC)NC[C@@H](Cc1ccc(O)cc1)NCC(C)(C)C	-1.92
Cn1c(=O)oc2cc(S(=O)(=O)N3CCC(C(=O)N4CCN(c5ccc(F)cc5)CC4)CC3)ccc21	-0.314
Cc1ccc(C2=NN(C(=O)c3cccs3)C(c3ccccc3O)C2)cc1 (stereo not shown)	34
CC(=O)c1ccc(S(=O)(=O)N(C)CC(=O)N2CCCCCC2)cc1	17.8
Cc1ccc(C(=O)CCC(=O)Nc2ccccc2F)cc1	10.6
Cc1noc(C)c1COC(=O)c1cccc(S(=O)(=O)N2c3ccccc3CC2C)c1 (stereo not shown)	3.14
CCOc1ccccc1C(=O)N(CN1CCCC1=O)c1ccc(C)c(Cl)c1	-5.99
Cc1ccc(-c2c3c([nH]c(=S)c2C#N)CCCC3)o1	15.4
Nc1ccc2nc(COc3ccccc3)[nH]c2c1	11.2
CC1=C(C(=O)Nc2ccccn2)C(c2ccccc2)n2ncnc2N1 (stereo not shown)	13.7
CCN(CC)c1ccc(/C=N/NC(=S)NC)c(O)c1	-4.91
CC(C)OC(=O)c1ccc(COC(=O)c2cccc(-c3nnc(-c4ccccc4)o3)c2)cc1	-4.8
CCCCN(C(=O)CCNC(=O)NC12CC3CC(CC(C3)C1)C2)c1c(N)n(CCC)c(=O)[nH]c1=O	-17.7
COc1ccccc1NC(=O)CN(Cc1ccco1)C(=O)c1ccc(-n2nc(C)cc2C)cc1	-51.2
